Some of the results follow.

The test system of the experiment is PfHDP1 homeodomain (GST-tagged). The experiment in a line: gcPBM binding intensity (ln(normalized median fluorescence intensity)); higher = stronger DNA binding. The procedure, abridged: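 An Agilent 4 × 180k array of primer-extended double-stranded 36-bp intergenic genomic probes, with negative controls, was incubated for 1 h with GST-tagged P. falciparum DNA-binding domains expressed in E. coli. Alexa488 anti-GST antibody detected bound protein, scanned at 488 nm. Binding intensity is the highest Masliner-normalised natural-log median intensity across replicate spots of either probe orientation.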
For “ACTATATATATAAGTGCATGTTCATTATACCTAAAG [TGCATGCA_site696]”, the “gcPBM binding intensity (ln)” value is 7.49.

Turning to “CTCACAAATGAATACACACAAACATATATATTTATA [CACACA_site1620]”, the “gcPBM binding intensity (ln)” value is 6.51. For “CCCACAGACGGACACACACACATATATATATATATA [CACACA_site4351]” the value was 9.48; for “TATTTAAATTTGTATAATGGACGAATTATATAGAAA [GTGCAC_negctrl_site650]”, 6.41. Regarding “TTGAATTATAAGAATAAACACACAAGCTTAAAAAAA [CACACA_site8318]”, the “gcPBM binding intensity (ln)” value was 6.35. For “GAATTATAAATTATAGTGCATAAAATTATGGCATAA [GTGCAC_site9938]” the value was 8.95; for “TCAAAACATTATTCCATACACACCATACTTTTTAAT [CACACA_site2770]”, 7.14; for “CTGTAAAAAATATAAACACACATAGAAATATATAAA [CACACA_site340]”, 6.62. For the sequence “CCTCATAAGTTCTTATGTACGTATTGTTCACCTTTA [XGTACX_site6640]”, the “gcPBM binding intensity (ln)” value is 6.42. Take “TTTATTTGTGCATATACACACTTAAATATGTTTATT [CACACA_site7772]”: the “gcPBM binding intensity (ln)” value stood at 9.72. With “TTTAATTTTTTTTATAGTACATAAAAAATAAAAAAA [XGTACX_site5631]”, the “gcPBM binding intensity (ln)” value turned out to be 6.15. Take “TACAACCTTATAATTAGTACTTAGTTATGCTGTAAA [XGTACX_site6052]”: the “gcPBM binding intensity (ln)” value amounted to 6.28. With “ACATAAAATTGGAGCAAACACACAAGGTTGAAATTA [CACACA_site505]” the figure was 7.16; with “TTTGTTATGGTTTTCTCACACATATATATATATATA [CACACA_site4617]”, 9.41. For “CCGATATAATGGAAAACACACAAAAGATATTTATAT [CACACA_site7293]” the value was 6.56; for ATTATAATACTTTGTATGCACTAATCAATTATTAAA, 7.89. “AATAACCACGGACACACACACATATATATATATATA [CACACA_site5873]”: the “gcPBM binding intensity (ln)” value worked out at 9.27. With “TTAAGAAACAAAGAAAGTACACAACATAATATAGAA [XGTACX_site477]”, the “gcPBM binding intensity (ln)” value came to 6.79. Turning to “TTAATAATAAAAAGGAGTACACTAATATACTATAAA [XGTACX_site2346]”, the “gcPBM binding intensity (ln)” value was determined as 6.35. With “AATAAAATCATCTATACACACAAAAAAAATAAGAAA [CACACA_site2101]”, the “gcPBM binding intensity (ln)” value stood at 6.75. As for “ATATAATATATATATAAACACACAAAAAAAATTATA [CACACA_site8434]”, the “gcPBM binding intensity (ln)” value amounted to 6.92. For “TATATGGTATGTATTACACACATATCACATATATAT [CACACA_site3045]” the value was 6.56; for “GGAATGGTACATGATACACACACGCACATATAAATA [CACACA_site7581]”, 7.02.

Regarding “TGGTAAATTGAGAATCGTACATTAAAAAACATAAAA [XGTACX_site3253]”, the “gcPBM binding intensity (ln)” value was 6.61.

On to “ATTTATTAAAAGAAATGTACAGAAAATGTTTGGAAT [XGTACX_site7187]”, for which the “gcPBM binding intensity (ln)” value turned out to be 6.86. With “AAGAAAAAAAAGATAATAATAATAATAATAAAATGA [TGCATGCA_negctrl_site398]” the figure was 6.41.

Consider “ATTTAATATCACAATATATTTTTTACCCTTATCAGC [CACACA_negctrl_site491]”, for which the “gcPBM binding intensity (ln)” value is 6.37. Take “TTATGTTGTAAATGCACACATACAAATACATATACA [CACACA_site1368]”: the “gcPBM binding intensity (ln)” value came to 10.3. As to “TACAATATAAAATACACACGCACACCGAAAAAAAAA [CACACA_site5865]”, the “gcPBM binding intensity (ln)” value is 6.97. For “TTTTCTATATAGTGTTGTACATTATTGTGTAAAAAT [XGTACX_site3223]” the value was 6.81; for “ATATTTTATACTTGCACACAAAATATATTAAAATGG [CACACA_site5139]”, 9.24. With “ATAAAATTGGAGCAAACACACAAGGTTGAAATTAAC [CACACA_site506]”, the “gcPBM binding intensity (ln)” value came out at 7.79.

For “GACTGAACAACATAATGTACATTTATAAGTATATAT [XGTACX_site3813]”, the “gcPBM binding intensity (ln)” value is 6.8.

As to “AGTAGTATGGAGAAAAGTACATAGTATCTGATAACC [XGTACX_site2040]”, the “gcPBM binding intensity (ln)” value turned out to be 6.79.

“AAAGAAAAAGAAAAAGAAAAAATAAAATAAAATAAA [CACACA_negctrl_site872]”: the “gcPBM binding intensity (ln)” value was 6.05. Consider “TATATATTATATATATGTACTTATTCATATATATAA [XGTACX_site3860]”, for which the “gcPBM binding intensity (ln)” value was found to be 6.43.

As to CTTTAATATATTTAAGTGCAAAACTAATATGTAAAG, the “gcPBM binding intensity (ln)” value came out at 9.26. With “TATTTAAAAACAAAAAGTACTAATATATATTTATAC [XGTACX_site1422]”, the “gcPBM binding intensity (ln)” value was determined as 6.64.

Turning to “AAAGAATTGTATAAAAGTACATATTTGTTTGTTTTA [XGTACX_site7380]”, the “gcPBM binding intensity (ln)” value amounted to 5.92. Take “TTTTTTTCATAAATTAGGTAATGTCGCAGGGGGACA [TGCATGCA_negctrl_site556]”: the “gcPBM binding intensity (ln)” value amounted to 6.83.

Take “TAAAAAATAAAATACACACACATATATATATATATA [CACACA_site1323]”: the “gcPBM binding intensity (ln)” value came to 9.49. On to “AAAAAAATTAAAGATTGTACTTGATTTTTCATTTTA [XGTACX_site6685]”, for which the “gcPBM binding intensity (ln)” value was found to be 6.19. On to “GAGGGAAAAAATAATCGTACAAAGAAAAAAAAAAAT [XGTACX_site7361]”, for which the “gcPBM binding intensity (ln)” value is 6.72.

As for “TATATTCTTTTTTTAACACACAAAAAAAATAAAATA [CACACA_site1898]”, the “gcPBM binding intensity (ln)” value amounted to 6.35. “AAAAAATAAAAGTGGGGTACATGTCATTATGTGCAT [XGTACX_site3753]”: the “gcPBM binding intensity (ln)” value was 7.46. For CAAAATATTATCATGATGCACTTTACACTCTAAGGT the value was 7.22; for “TCATTATATTATTCTTGTACTTATATCCTTTTTTGA [XGTACX_site5320]”, 6.61; for “TAAAAGTTCACCTGTACACACATATATATCTGTACA [CACACA_site5019]”, 6.79. For “TTTTCATTCTTTTCCTTTGATTTACAATAGTATATT [GTGCAC_negctrl_site687]”, the “gcPBM binding intensity (ln)” value turned out to be 6.87. For “GATCTTTCACATATATATATAAAGGATATTATGGTA [CACACA_negctrl_site522]” the value was 6.36. With “AGTAGTCTGGAGAAAAGTACACAGTATCTGGTAGCT [XGTACX_site2544]” the figure was 6.04; with “TATAATAATCCACAAGCACACACACCCACATATATA [CACACA_site8343]”, 6.94; with “AAATATTATTCATTTTGTACGTATAATTTTTAATGA [XGTACX_site3509]”, 6.49.

“TTATTACACAAATGGTGTACTTTTGAGGAACCAAAA [XGTACX_site4279]”: the “gcPBM binding intensity (ln)” value came to 6.3. Consider “ATTATATTATATTATACATGCATAATATTATATAAA [TGCATGCA_site647]”, for which the “gcPBM binding intensity (ln)” value amounted to 6.24. With “AAATTAAATGTAAGCACACATAAATTATACGCATAT [CACACA_site3335]” the figure was 6.48; with “ACATTGAATAAATAATGTACATATATAATATATATT [XGTACX_site95]”, 6.55.
